Over roughly 81,000 sequences, “one-hybrid fitness for binding parS DNA” has its median near -0.17; the highest 2% begin near 0.51. This is one part of the list.
B1: Caulobacter ParB omega fusion; a variant is named by its letters at X, in order, B8GW30 (parent)
chain: MESVVVGEPGMSEGRRGLGRGLSALLGEVDAAPAQAPGEQLGGSREAPIEILQRNPDQPRRTFREEDLEDLSNSIREKGVLQPILVRPSPDTAGEYQIVAGERAWRAAQRAGLKTVPIMVRELDDLAVLEIGIIENVQRADLNVLEEALSYKVLMEKFERTQENIAQTIGKSXSHVANXMRLLXLPDEVQSYLVSGELTAXHARAIAAAADPVALAKQIIEGGLSVRETEALARKAPNLSAGKSKGGRPPRVKDTDTQALESDLSSVLGLDVSIDHRGSTGTLTITYATLEQLDDLCNRLTRGI

Variants of: B1
Test: one-hybrid fitness for binding parS DNA (scaled: cognate 1, non-cognate 0); higher = stronger binding
Settings: with parS DNA site
Summary of the method: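 On M9-minus-histidine containing 0.1 mM IPTG and 5 mM 3-AT, E. coli USO cells with a HIS3 reporter, site 19 bp from the promoter, grew 48 hours at 37°C to select Caulobacter ParB libraries randomised at four specificity codons. Plasmids from before and after were Illumina-sequenced, with three replicate libraries pooled and variants under 10 reads left out. Fitness is the log change in variant-to-wild-type read ratio, rescaled against cognate and non-cognate.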

one-hybrid fitness for binding parS DNA, 0.334:
RERC

one-hybrid fitness for binding parS DNA, 0.725:
RFCT

one-hybrid fitness for binding parS DNA, 0.235:
RLSW

one-hybrid fitness for binding parS DNA, 0.359:
RNAY

one-hybrid fitness for binding parS DNA, 0.247:
RLKH
RAGF

one-hybrid fitness for binding parS DNA, 0.475:
RCQN

one-hybrid fitness for binding parS DNA, 0.204:
RAFH

one-hybrid fitness for binding parS DNA, 0.217:
NWLM

one-hybrid fitness for binding parS DNA, ≤ 0.2:
EGTT
VHME
PIAV
LYWT
VSNG
RCHE
RNLL
HQWA
YEES
RTEQ
YQRL
TPHM
AGEC
YHYS
QCER
PIGD
GTRC
VMRC
EPFT
VHQY
SYNY
QVEP
WAIR
CQKV
MVYD
TGAI
YETF
IIIS
QGRC
CLSA
IHMV
QGNT
VQFE
AANQ
SLAV
YNAT
TYCV
PNGP
GMDL
NFLS
VVVS
YIHS
QMWC
CQHK
GHTY
ISTA
WASA
SCHT
QPGY
QNKS
APIR
PLIT
KILF
SVRR
WMKG
GPHL
THWT
TNGR
MSNR
TAMA
FSQT
QLIQ
WMQR
GAME
RDQS
TRDC
PALW
RSNK
RGQD
KGRD
NLQS
VCVS
GLSH
APCD
MRKA
GTRY
CIMR
MSAW
APFA
KAMR
ANPC
ISDG
AFTD
AKTM
KPTW
SMQC
CHYC
VRHA
ERLI
NQLY
QYRF
VYKS
MTNR
SYVV
ENQV
HKER
PAAL
YMTN
KPRK
LVFC
IAKR
YTLS
SDDR
PSEL
GRST
TTGY
EPSK
HLHT
SIKA
NSAV
PKDT
TSYT
STHG
EETY
LEPG
PSFC
YRMV
HWAF
GCKW
IVSY
LHMD
NNVS
CKLV
GLAF
QLEG
PFNC
RHEK
VKWM
LPTG
TSIM
PLEM
YLET
VRDE
AQCV
LPSV
VIHS
QIWG
YLVD
VKHT
CRMA
SPSP
SATA
KVGY
AHAC
TGSG
AAIK
QRHQ
VAKT
LSMG
IVRG
ACAR
NPRV
QQCV
AIST
WSMG
SCTL
SWHQ
VFQS
NTNW
NRMI
ELFV
CTGP
MYPG
MHGR
YFPL
YNPA
QQFV
GTII
PLDL
LHVR
RQMR
PVKY
LTSY
QPTH
VNRE
LPRS
RSKK
FHRW
IPCS
QLYV
STCC
QWPM
QCYD
WERT
TVYL
LMVC
SCYF
QHAE
YPGY
VHTR
KTTN
IPLS
HSCH
HEKA
ERSC
DTNH
FCYE
FHIG
KTNF
SQVT
TAKT
FSGT
PMKR
HWER
ISNS
LSYL
YLGL
KSMR
RRIQ
SAYI
RFVL
GRLL
HRIG
VQCF
KCGC
SQSS
KMCT
AFDL
PHMT
LYHD
FPHG
DLEP
SSLY
LDAP
TRIG
HYAQ
VTEW
GMYT
HRHR
TPAM
LRPM
QHMI
HDLT
NFHS
QHFY
LKWY
TATY
VTYS
FRLT
PNRQ
HGVC
RDMK
RFGV
CMTI
LFNF
NGTF
GPLF
PDTC
RMNL
EMIC
YEGP
CCMW
LRVA
NAAY
PRDY
PGKT
HNLR
DMMV
HARL
NGQF
QHQL
ATST
QEMW
KVED
RHGF
PNKY
GPPS
NKWC
HLIP
IKCR
MVGS
IPNS
QWKV
LCAG
YTHR
TGQD
IRNL
FAAC
PANL
KYNC
LEPT
NTKT
CYQG
NKSL
GARC
THCA
QCPR
FLGC
CERR
MCKS

one-hybrid fitness for binding parS DNA, 0.928:
RAHT

one-hybrid fitness for binding parS DNA, 0.583:
RRAN

one-hybrid fitness for binding parS DNA, 0.451:
RCLN

one-hybrid fitness for binding parS DNA, 0.479:
RANY

one-hybrid fitness for binding parS DNA, 0.874:
RVDG

one-hybrid fitness for binding parS DNA, 0.688:
RWCG

one-hybrid fitness for binding parS DNA, 0.234:
RIGF
